# Test results as given in PubChem BioAssay AID493208 (National Center for Advancing Translational Sciences (NCATS), 2011).
# In all, about 44,000 compounds went through this assay and about 340 (0.77%) were called active. Another 5% or so got no clear call; they are omitted. The call rests on the fitted dose curve; in most records, active means well fitted inhibition curve with a large enough effect; inconclusive means small, poorly fitted or top-dose-only effect; inactive means flat fitted curve, though single readings scatter. Some of the results follow.
# Assay: Acumen qHTS Assay for Inhibitors of the mTORC1 Signaling Pathway in MEF (Tsc2-/-, p53-/-) Cells: Sytravon;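 further: plate controls were DMSO for no effect and rapamycin for full effect; nearly all actives have a fitted effect of over 50% in size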
# Conditions: phospho-rpS6 immunofluorescence/PI, 24 h; series mostly up to 38.3 µM; activity change, negative = inhibition: at the top concentration
# In short: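 Tsc2-/-, p53-/- MEFs (empty-vector stable line) in DMEM + 10% FBS were treated with compounds 24 h at 37 degree Celsius, fixed, and immunostained for phospho-rpS6 (Alexa-488) with propidium iodide counterstain. Laser-scanning cytometry gave % positive cells, normalized against 7.5 nM rapamycin and DMSO.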
row,Structure (SMILES),"activity change, negative = inhibition"
1,COc1ccc(-c2cnnn2-c2ccc(NC(=O)c3ccccc3OC)cc2)cc1,inactive: -25.3%
2,Cc1c(C(=O)NCc2cccc(Br)c2)oc2ccc3c(c12)C(=O)CC(C)(C)O3,inactive: -3.12%
3,CCN(CC)CCCNC(=O)c1ccc(Cn2c(SCc3ccccc3)nc3cccnc32)cc1,inactive: -6.78%
4,Cn1c(=O)n(Cc2c(F)cccc2Cl)c(=O)c2c1nc1n2CCN1c1ccc(F)cc1,inactive: -17.5%
5,Nc1nn(-c2ccccc2)nc1C(=O)OCc1ccc(Cl)cc1,inactive: -2.84%
6,COc1ccc(-c2nc3sc(CCNC(=O)C(=O)Nc4cccc(NC(C)=O)c4)c(C)n3n2)cc1,inactive: -0.0876%
7,COc1c(C)cccc1C(=O)Nc1ccc(-c2nc3ccccc3s2)c(Cl)c1,inactive: 14.8%
8,CC1=C(C(=O)NCc2ccccc2F)C2(CCCCC2)OC1=O,inactive: -1.72%
9,Cc1ccc(CCNC(=O)C2CCCN(c3nnc(C)c4c(C)n(-c5ccccc5)nc34)C2)cc1 (stereo not drawn),inactive: -15.5%
10,COc1ccc(-c2cn3nc(N4CCCC(C(=O)NCc5ccc(Cl)cc5)C4)sc3n2)cc1 (stereo not drawn),inactive: -7.36%
11,O=C(Nc1ccccc1Cl)N1CCC(CN2CCCC2)CC1,inactive: 5.17%
12,CC1=C(c2ccc(F)cc2)S(=O)(=O)N=C1N1CCC(C(=O)NCCc2cccc(C)c2)CC1,inactive: -3.46%
13,COc1cccc(-c2nc(CS(=O)(=O)CC(=O)NCc3cccc(Cl)c3)c(C)o2)c1,inactive: -10.6%
14,Cc1ccc(CSc2ncc(Cl)c(C(=O)Nc3nnc(C)s3)n2)cc1,inactive: -0.393%
15,O=C(NCc1ccc2c(c1)CCN2C(=O)c1ccccc1)Nc1cccc(C(F)(F)F)c1,inactive: -20%
16,Cc1ccccc1OCCSc1nc2ccc(NC(=O)c3cccc(F)c3)cc2s1,inactive: -8.38%
17,COc1ccc(Cn2ccnc2SCC(=O)Nc2nc3ccccc3s2)cc1,inactive: 2.58%
18,COc1cc2ncc3c(-c4ccc(C)cc4)nn(-c4ccc(F)cc4F)c3c2cc1OC,inactive: 11.3%
19,Cc1ccc(NC(=O)CN2C(=O)c3cccnc3Oc3ccc(Cl)cc32)cc1,inactive: 0.575%
20,CCOC(=O)c1c(C)n(-c2ccccc2)c2ccc(OC(=O)COc3ccc(Cl)cc3)cc12,inactive: -17%
21,Cc1ccccc1-c1nc(CN2CCC(C(=O)NCc3ccc(F)cc3)CC2)c(C)o1,inactive: -7.27%
22,CC(=O)c1ccc(NC(=O)c2ccc3c(c2)N(Cc2cccc(Cl)c2)C(=O)c2ccccc2S3=O)cc1 (stereo not drawn),inactive: -0.0939%
23,Cc1c(C(=O)NCc2ccccc2Cl)sc2ncnc(N(C)C3CCCCC3)c12,inactive: -5.15%
24,Cc1ccn2c(Nc3ccc4c(c3)OCCO4)c(-c3ccc(C)o3)nc2c1,inactive: -8.24%

row,Structure (SMILES),"activity change, negative = inhibition"
1,Cc1cc(Nc2ccccc2C)n2nc(Cc3ccc(Cl)cc3)nc2n1,inactive: -0.908%
2,COc1ccc(NC(=O)c2cc3c(s2)-c2c(C)cccc2OC3)cc1Cl,inactive: -2.81%
3,CCNC(=O)C1CCN(S(=O)(=O)c2ccc3c(c2)CCCN3C(C)=O)CC1,inactive: -0.277%
4,CCCN(CCC)c1ccc(C2N=C(N)Nc3nc4ccccc4n32)cc1 (stereo not drawn),inactive: -3.53%
5,Cn1c(=O)oc2cc(S(=O)(=O)CCC(=O)N3CCN(c4cccc(Cl)c4)CC3)ccc21,inactive: 0%
6,O=C(NCc1ccccc1)c1ccc(NC(=O)N2CC3CCCN3c3ccccc32)cc1 (stereo not drawn),inactive: -8.27%
7,Cc1ccc(S(=O)(=O)c2nnn3c2nc(NCc2ccc4c(c2)OCO4)c2sccc23)cc1C,inactive: 4.35%
8,CCc1ccc(NC(=O)CN2C(=O)c3cccc4cccc2c34)cc1,inactive: 1.18%
9,CCCCNC(=O)CCCCCn1c(=O)[nH]c2ccccc2c1=O,inactive: -4.99%
10,COc1ccc(Br)cc1CNC(=O)c1cnc2sc(N3CCC(C)CC3)nn2c1=O,inactive: -3.7%
11,Cc1ccc(C)c(N2CCN(S(=O)(=O)c3cc(C(=O)Nc4ccc(Oc5ccccc5)cc4)ccc3F)CC2)c1,inactive: 0%
12,COc1cc(Cl)c(NC(=O)c2cc3ccccn3n2)c(OC)c1,inactive: 6.22%
13,Cc1cccc(NC(=O)C2CCCN2S(=O)(=O)c2ccc3nc(-c4ccccc4)[nH]c3c2)c1 (stereo not drawn),inactive: -3.26%
14,Cc1ccc2c(c1)c1c(c(=O)n(-c3ccccc3)c(=O)n1CC(=O)NCC1CCCO1)n2C (stereo not drawn),inactive: 1.21%
15,O=c1n(Cc2ccccc2Cl)c2ccccc2c2nc(-c3ccccc3)nn12,inactive: -1.96%
16,Cc1nn2c(=O)cc(COC(=O)c3ccc(NC(=O)COc4ccc(C)c(C)c4)cc3)nc2s1,inactive: -9.67%
17,Cc1ccc(C)c(NC(=O)n2ncc3cc(Cl)ccc32)c1,inactive: 0.677%
18,COC(=O)C(C)Sc1ccc2nnc(CCNS(=O)(=O)c3ccc(C)cc3)n2n1 (stereo not drawn),inactive: 3.24%
19,Cc1ncc(CO)c2c1Oc1nc(-c3ccccc3Cl)nc(SCc3ccccc3F)c1C2,inactive: 0.497%
20,COCCCNC(=O)Cn1cnc2sc(C)c(S(=O)(=O)N3CCC(C)CC3)c2c1=O,inactive: 0.798%
21,CC(C)NC(=O)c1ccc(Cn2c(SCC(N)=O)nc3ccccc3c2=O)cc1,inactive: -0.84%
22,Cc1ccc(CCNC(=O)c2ccc3nc(N4CCC(C)CC4)sc3c2)cc1,inactive: 1.69%
23,CCOc1ccc(C2CC(=O)Nc3nc(SCc4ccccc4C)[nH]c(=O)c32)cc1OC (stereo not drawn),inactive: 2.44%
24,COc1cc(Cl)c(C)cc1Nc1nc2ccccc2c2nnc(C)n12,inactive: 6.97%
